Measurements taken from PubChem BioAssay AID488969 (Vanderbilt High Throughput Screening Facility, 2010).
Over roughly 110,000 compounds, “z-score” has its median near -0.1; the highest 2% begin near 2. The list shows a part of the results.

target: Metabotropic glutamate receptor 8 (Rattus norvegicus) (UniProt P70579); test: rat mGluR8 modulators via GIRK flux, primary screen, cell-based, thallium flux, HTS (AID 488969); conditions: HEK293 rat mGluR8, GIRK (G protein-gated inwardly rectifying potassium channel) thallium flux, FluoZin2; at 10 µM; stronger effect = higher value
Sequence of UniProt P70579 (P70579 whole entry, looked up): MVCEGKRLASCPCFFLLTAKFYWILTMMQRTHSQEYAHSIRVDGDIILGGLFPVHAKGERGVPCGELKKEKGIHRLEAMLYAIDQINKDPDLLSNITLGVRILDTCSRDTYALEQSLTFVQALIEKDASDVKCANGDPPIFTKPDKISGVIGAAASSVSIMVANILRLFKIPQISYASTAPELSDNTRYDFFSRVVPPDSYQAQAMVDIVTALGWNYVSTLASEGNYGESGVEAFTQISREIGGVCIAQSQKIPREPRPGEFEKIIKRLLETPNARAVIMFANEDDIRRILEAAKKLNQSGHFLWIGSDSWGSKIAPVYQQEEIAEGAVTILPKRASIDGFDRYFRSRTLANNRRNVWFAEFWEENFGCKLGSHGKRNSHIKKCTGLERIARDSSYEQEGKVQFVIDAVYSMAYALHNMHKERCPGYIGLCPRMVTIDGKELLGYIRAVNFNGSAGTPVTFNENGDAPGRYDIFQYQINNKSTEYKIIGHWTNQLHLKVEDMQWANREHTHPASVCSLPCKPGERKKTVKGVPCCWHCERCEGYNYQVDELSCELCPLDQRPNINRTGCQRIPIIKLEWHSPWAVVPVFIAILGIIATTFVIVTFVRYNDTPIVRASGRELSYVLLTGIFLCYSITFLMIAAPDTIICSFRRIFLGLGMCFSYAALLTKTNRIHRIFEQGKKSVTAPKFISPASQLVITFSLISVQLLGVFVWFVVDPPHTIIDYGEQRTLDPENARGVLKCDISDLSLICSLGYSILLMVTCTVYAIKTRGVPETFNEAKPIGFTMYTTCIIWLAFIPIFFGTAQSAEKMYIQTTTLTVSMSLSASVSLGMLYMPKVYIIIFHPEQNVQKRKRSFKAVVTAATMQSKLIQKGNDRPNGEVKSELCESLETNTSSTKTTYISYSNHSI

SMILES | z-score
CCN(CC)Cc1c[nH]c2ccccc12 | -0.122
Cc1ccc(C(=O)C2CN3CCC2CC3)cc1 (stereo not drawn) | -0.598
Cc1cccc(NP(=O)(Oc2ccccc2F)Oc2ccccc2F)c1C | -0.437
O=C1NC(=O)N(c2ccc(Cl)cc2)C(=O)/C1=C\c1ccc(Sc2nc3ccccc3[nH]2)o1 | -0.129
CCCSP1(=S)NCCCO1 (stereo not drawn) | -0.333
CCN1CCN(c2cc(N3CCCC3)c(F)cc2[N+](=O)[O-])CC1 | 0.997
CCC/C(=N\O)c1c[nH]c2ccccc12 | -0.0278
O=C(N/N=C/c1c(O)n(Cc2ccc(F)cc2)c(=O)[nH]c1=O)c1ccccc1O | -0.172
CCOC(=O)C(O)(c1ccc(N(CC)C(=O)OC)cc1)C(F)(F)F (stereo not drawn) | -0.39
CCCC(C)C1(CC)C(=O)NC(=O)N=C1N (stereo not drawn) | -0.463
O=C(Nc1cccc(C(F)(F)F)c1)c1cccn(Cc2ccc3c(c2)OC(F)(F)O3)c1=O | -0.1
N[C@@H](Cc1c[nH]c2ccccc12)c1nnc(SCc2ccccc2)o1 | 0.416
Cc1ccc(OCC(=O)Nc2ccc(Cl)cc2C(=O)c2ccccc2)cc1 | 0.107
OCCNc1c2c(nc3ccccc13)CCCC2 | 0.665
COc1ccc(OC)c(C2=NOC(C(=O)N3CCC4(CC3)OCCO4)C2)c1 (stereo not drawn) | 0.488
O=c1c2ccccc2ncn1-c1ccc([N+](=O)[O-])c(C(F)(F)F)c1 | -0.126
Cc1ccc2nsnc2c1-n1c(C)nc2ccccc2c1=O | 0.0517
COc1ccc(C(=O)C(Cc2ccccc2)N(C)C)cc1 (stereo not drawn) | -0.0336
O=c1c2ccccc2nc(-c2cccs2)n1-c1cnccn1 | -0.976
C1=C(c2c[nH]c3ccccc23)CCNC1 | 1.29
CCn1cc(C(=O)c2ccccc2)c2ccccc21 | -0.437
CC(O)CNc1ccc([N+](=O)[O-])c2cccnc12 (stereo not drawn) | -0.0963
Cc1nn(Cc2ccccc2)c(C)c1C=C1C(=O)NC(=S)NC1=O | -0.287
C=CCN1C(=O)C2(C(C(=O)OCC)=C(N)Oc3ccccc32)C2=C1CCCC2=O (stereo not drawn) | 0.304
CCOCCN1CCN(c2nnc3n2-c2ccc(Cl)cc2C(c2ccccc2Cl)=NC3)CC1 | -0.334

SMILES | z-score
CCC(CO)Nc1ccc([N+](=O)[O-])c2cccnc12 (stereo not drawn) | -0.388
Cc1ccc2c(c1)=C/C(=C\c1c(O)[nH]c(=S)[nH]c1=O)C(=O)N=2 | -0.23
CC(=O)c1ccc(OC(NC(=O)Cc2ccccc2)C(Cl)(Cl)Cl)cc1 (stereo not drawn) | -0.114
CN(C)C(=O)Oc1ccc(OC(=O)N(C)C)cc1 | 0.415
CC(C)C(=O)c1cn(Cc2ccccc2C#N)c2ccccc12 | -0.298
CC1(C)CN=C(Nc2nc3ccccc3s2)S1 | -0.316
CCN(CC)S(=O)(=O)c1cc(NC(=O)C(C)N2CC=C(c3ccccc3)CC2)ccc1C (stereo not drawn) | -0.702
CN1C(=O)C(Cc2cccs2)C(=O)N(C)C1=O | -0.201
O=P(Nc1cccnc1)(Oc1ccccc1)Oc1ccccc1 | -0.195
CC(=O)Nc1cc(C(=O)N2CCC3(CC2)OCCO3)ccc1S(=O)(=O)c1ccc(Cl)cc1 | -0.147
O=C(C1CCC(=O)N1Cc1ccc(F)cc1)N1CCC2(CC1)OCCO2 (stereo not drawn) | 0.159
CN1C(=O)N(C)C(=O)C2(Sc3ccccc3C2=O)C1=O | -0.108
O=C(c1cc2c(s1)CCCCCC2)N1CCC2(CC1)OCCO2 | -0.14
CN(C)c1ccc(/C=C2/C(=O)NC(=O)N(CCc3ccc(F)cc3)C2=O)cc1 | -0.183
CCc1cccc(C)c1NC(=S)N1CC2CC(C1)c1cccc(=O)n1C2 (stereo not drawn) | -0.12
O=C1OCCC1NC1=NCCC1 (stereo not drawn) | 0.969
COc1ccccc1N1CCN(Cc2cc(C)c(C)cc2O)CC1 | -0.141
CNCCc1nc(N)n[nH]1 | -0.346
CC(=NCc1ccco1)c1c(O)n(C)c(=O)n(C)c1=O | 1
O=c1[nH]c(=O)n(Cc2ccco2)c(O)c1C=NCCCn1ccnc1 | 0.07
FC(F)(F)/C(=N\P(=S)(N1CCOCC1)N1CCOCC1)N1CCOCC1 | -0.145
CN1CCc2nc3ccc(F)cc3c(C(N)=O)c2C1 | -0.062
Cn1cccc1CNCCc1ccc(F)cc1 | -0.24
FC(F)(F)c1ccccc1CN1CCN(Cc2ccccc2)CC1 | -0.36
CCOc1ccc(-n2c(O)c(C=NCCCn3ccnc3)c(=O)[nH]c2=O)cc1 | 0.0171

SMILES | z-score
Oc1ccc(/C=N/NP(=S)(c2ccccc2)c2ccccc2)c(O)c1O | 0.274
Cc1c(C(=O)N2CCC3(CC2)OCCO3)oc2ccccc12 | 0.833
CN1C(=O)NC(=O)C2(Cc3ccccc3N3CCOCC32)C1=O (stereo not drawn) | -0.307
CCOc1ccc(N=C2SCCCN2C)cc1 | 0.638
Cc1ccccc1-n1c(C)cc(/C=C2/C(=O)NC(=O)N(Cc3ccco3)C2=O)c1C | 1.01
O=C(c1sc2ccccc2c1Cl)N1CCC2(CC1)OCCO2 | -0.308
c1ccc(C(OCCN2CCNCC2)c2ccccc2)cc1 | 0.0452
O=c1c2ccccc2nc(-c2ccc([N+](=O)[O-])cc2)n1-c1ccccc1 | -0.0961
Cc1cccc(CN2CCN(Cc3ccc(Cl)cc3)CC2)c1 | -0.773
CCOc1ccc(C2C(C#N)=C(N)Oc3c2c(=O)oc2ccccc32)cc1 (stereo not drawn) | 0.101
Cc1ccc(-c2nc3ccccc3c(=O)n2-c2cccnc2)cc1 | -0.94
Cc1c(N=Cc2c(O)n(CCc3ccc(F)cc3)c(=O)[nH]c2=O)c(=O)n(-c2ccccc2)n1C | -0.511
Cc1cc(/C=C2\C(=O)NC(=O)N(c3cccc(Br)c3)C2=O)c(C)n1C | -1.26
CC(C)CC(NC(=O)C1CCCCC1)C(=O)N1CCC2(CC1)OCCO2 (stereo not drawn) | 0.0831
Clc1ccc2c(c1)C(c1ccccc1Cl)=NCc1nncn1-2 | 1.46
CCCC(C)n1[nH]c(=O)c2c1NC(=O)CSC2c1ccc(OC)cc1 (stereo not drawn) | 0.623
Cc1cc2c(s1)NC(=O)CN=C2c1cccs1 | -0.674
C=CCn1c(O)c(N=Nc2c(C)n(C)n(-c3ccccc3)c2=O)c(=O)[nH]c1=S | 0.244
Cc1ccc(N2C(=O)NC(=O)/C(=C\c3ccsc3)C2=O)cc1C | -0.165
CC(=NCCCN1CCCCC1)c1c(O)n(Cc2ccccc2)c(=O)[nH]c1=O | -0.0233
CCN(CC)CCCC(C)N=C(c1ccccc1)c1c(O)n(C)c(=O)n(C)c1=O (stereo not drawn) | -0.293
O=P(O)(O)Cc1ccccc1OP(=O)(c1ccccc1)c1ccccc1 | -0.537
O=C(/C=C/c1ccccc1)c1c(O)n(CCc2ccccc2)c(=O)[nH]c1=O | -0.203
